# In the supplement of paper PMC8728848:
# This is one part of the list.
# B1: ZG16p (Homo sapiens), O60844 (protein)
# chain: ARSSSYSGEYGGGGGKRFSHSGNQLDGPITALRVRVNTYYIVGLQVRYGKVWSDYVGGRNGDLEEIFLHPGESVIQVSGKYKWFLKKLLFVTDKGRYLSFGKDSGTSFNAVPLHPNTVLRFISGRSGSLIDAIGLHWDVYPSSCSRC
# Legend:
# Assay in all cases: glycan array binding signal (z-score within array); higher = stronger binding
# Conditions in all cases: glycan notation: IUPAC condensed, linker removed; mutation: Y104F
# [1] = target: HexA(a1-3)GalNAc4S(b1-4)GlcA(b1-3)GalNAc4S(b1-4)GlcA(b1-3)GalNAc4S(b1-4)GlcA(b1-3)GalNAc4S(b1-4)GlcA(b1-3)GalNAc4S(b1-4)GlcA(b1-3)GalNAc4S(b1-4)GlcA(b1-3)GalNAc4S(b1-4)GlcA(b1-3)GalNAc4S
# Summary of the method: (§1)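 Glycan array data came from 3228 arrays in the Consortium for Functional Glycomics database, and only arrays with an available protein sequence were kept. Glycan names were put into IUPAC-condensed notation, and columns mapping to the same glycan were averaged. The binding signal is a within-array Z-score, averaged across arrays of one protein sequence run at different concentrations or buffers and across linkers. A negative Z-score can be read as non-binding.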
# [2] = target: HexA(a1-3)GalNAc4S(b1-4)IdoA(a1-3)GalNAc4S(b1-4)IdoA(a1-3)GalNAc4S(b1-4)IdoA(a1-3)GalNAc4S(b1-4)IdoA(a1-3)GalNAc4S(b1-4)IdoA(a1-3)GalNAc4S(b1-4)IdoA(a1-3)GalNAc4S(b1-4)IdoA(a1-3)GalNAc4S
# Summary of the method: as §1
# [3] = target: HexA(a1-3)GalNAc6S(b1-4)GlcA(b1-3)GalNAc6S(b1-4)GlcA(b1-3)GalNAc6S(b1-4)GlcA(b1-3)GalNAc6S(b1-4)GlcA(b1-3)GalNAc6S(b1-4)GlcA(b1-3)GalNAc6S(b1-4)GlcA(b1-3)GalNAc6S(b1-4)GlcA(b1-3)GalNAc6S
# Summary of the method: as §1
# [4] = target: HexA2S(a1-4)GlcNS6S(a1-4)IdoA2S(a1-4)GlcNS6S(a1-4)IdoA2S(a1-4)GlcNS6S(a1-4)IdoA2S(a1-4)GlcNS6S(a1-4)IdoA2S(a1-4)GlcNS6S(a1-4)IdoA2S(a1-4)GlcNS6S(a1-4)IdoA2S(a1-4)GlcNS6S(a1-4)IdoA2S(a1-4)GlcNS6S(a1-4)IdoA2S
# Summary of the method: as §1
# Man(a1-2)Man = target: Man(a1-2)Man
# Summary of the method: as §1
# [5] = target: Man(a1-2)Man(a1-2)Man(a1-3)[Man(a1-2)Man(a1-3)[Man(a1-2)Man(a1-6)]Man(a1-6)]Man(b1-4)GlcNAc(b1-4)GlcNAc
# Summary of the method: as §1
# [6] = target: Man(a1-2)Man(a1-2)Man(a1-3)[Man(a1-2)Man(a1-6)[Man(a1-3)]Man(a1-6)]Man(b1-4)GlcNAc(b1-4)GlcNAc
# Summary of the method: as §1
# [7] = target: Man(a1-2)Man(a1-2)Man(a1-3)[Man(a1-3)[Man(a1-6)]Man(a1-6)]Man(b1-4)GlcNAc(b1-4)GlcNAc
# Summary of the method: as §1
# [8] = target: Man(a1-2)Man(a1-3)[Man(a1-2)Man(a1-6)[Man(a1-3)]Man(a1-6)]Man(b1-4)GlcNAc(b1-4)GlcNAc
# Summary of the method: as §1
# [9] = target: Man(a1-2)Man(a1-3)[Man(a1-3)[Man(a1-6)]Man(a1-6)]Man(b1-4)GlcNAc(b1-4)GlcNAc
# Summary of the method: as §1
# Man(a1-3)Man = target: Man(a1-3)Man
# Summary of the method: as §1
# [10] = target: Man(a1-3)Man(a1-6)[Man(a1-3)]Man(b1-4)GlcNAc(b1-4)GlcNAc
# Summary of the method: as §1
# Man(a1-3)Man(b1-4)GlcNAc = target: Man(a1-3)Man(b1-4)GlcNAc
# Summary of the method: as §1
# Man(a1-3)[Man(a1-6)]Man = target: Man(a1-3)[Man(a1-6)]Man
# Summary of the method: as §1
# [11] = target: Man(a1-3)[Man(a1-6)]Man(a1-6)Man(b1-4)GlcNAc(b1-4)GlcNAc
# Summary of the method: as §1
# [12] = target: Man(a1-3)[Man(a1-6)]Man(a1-6)[Man(a1-3)]Man
# Summary of the method: as §1
# [13] = target: Man(a1-3)[Man(a1-6)]Man(a1-6)[Man(a1-3)]Man(b1-4)GlcNAc(b1-4)GlcNAc
# Summary of the method: as §1
# [14] = target: Man(a1-3)[Man(a1-6)]Man(b1-4)GlcNAc(b1-4)GlcNAc
# Summary of the method: as §1
# [15] = target: Man(a1-3)[Man(a1-6)]Man(b1-4)GlcNAc(b1-4)[Fuc(a1-6)]GlcNAc
# Summary of the method: as §1
# Man(a1-6)Man = target: Man(a1-6)Man
# Summary of the method: as §1
# [16] = target: Man(a1-6)Man(b1-4)GlcNAc(b1-4)GlcNAc
# Summary of the method: as §1
# Man(b1-4)GlcNAc = target: Man(b1-4)GlcNAc
# Summary of the method: as §1
# [17] = target: Neu5Ac(a2-3)Gal(b1-4)GlcNAc(b1-2)Man(a1-3)[Neu5Ac(a2-3)Gal(b1-4)GlcNAc(b1-2)Man(a1-6)]Man(b1-4)GlcNAc(b1-4)[Fuc(a1-6)]GlcNAc
# Summary of the method: as §1
# [18] = target: Neu5Ac(a2-6)Gal(b1-4)GlcNAc(b1-2)Man(a1-3)[Neu5Ac(a2-6)Gal(b1-4)GlcNAc(b1-2)Man(a1-6)]Man(b1-4)GlcNAc(b1-4)GlcNAc
# Summary of the method: as §1
# [19] = target: Xyl(b1-2)[Man(a1-3)][Man(a1-6)]Man(b1-4)GlcNAc(b1-4)GlcNAc
# Summary of the method: as §1
# [20] = target: Xyl(b1-2)[Man(a1-3)][Man(a1-6)]Man(b1-4)GlcNAc(b1-4)[Fuc(a1-3)]GlcNAc
# Summary of the method: as §1
binder,measurement,setting,value
B1,glycan array binding signal (z-score),[1],-0.298
same,glycan array binding signal (z-score),[2],0.634
same,glycan array binding signal (z-score),[3],-0.066
same,glycan array binding signal (z-score),[4],2.51
same,glycan array binding signal (z-score),Man(a1-2)Man,-0.062
same,glycan array binding signal (z-score),[5],-0.436
same,glycan array binding signal (z-score),[6],-0.292
same,glycan array binding signal (z-score),[7],-0.301
same,glycan array binding signal (z-score),[8],-0.485
same,glycan array binding signal (z-score),[9],-0.34
same,glycan array binding signal (z-score),Man(a1-3)Man,0.253
same,glycan array binding signal (z-score),[10],-0.211
same,glycan array binding signal (z-score),Man(a1-3)Man(b1-4)GlcNAc,0.015
same,glycan array binding signal (z-score),Man(a1-3)[Man(a1-6)]Man,0.473
same,glycan array binding signal (z-score),[11],-0.293
same,glycan array binding signal (z-score),[12],0.022
same,glycan array binding signal (z-score),[13],-0.351
same,glycan array binding signal (z-score),[14],-0.312
same,glycan array binding signal (z-score),[15],-0.285
same,glycan array binding signal (z-score),Man(a1-6)Man,0.091
same,glycan array binding signal (z-score),[16],-0.099
same,glycan array binding signal (z-score),Man(b1-4)GlcNAc,-0.37
same,glycan array binding signal (z-score),[17],-0.46
same,glycan array binding signal (z-score),[18],-0.485
same,glycan array binding signal (z-score),[19],-0.331
same,glycan array binding signal (z-score),[20],-0.355
